Experimental data: PubChem BioAssay AID493208 (National Center for Advancing Translational Sciences (NCATS), 2011)
The whole screen tested about 44,000 compounds, of which about 340 (0.77%) were called active. The shares of active, inactive and inconclusive entries below differ from those in the screen. Calls follow the shape of the dose curve; as a rule, active = well fitted inhibition curve with a large enough effect; inconclusive = small, poorly fitted or top-dose-only effect; inactive = flat fitted curve, though single readings scatter. Potencies of inconclusive entries are left out as doubtful fits.

assay: Acumen qHTS Assay for Inhibitors of the mTORC1 Signaling Pathway in MEF (Tsc2-/-, p53-/-) Cells: Sytravon; conditions: phospho-rpS6 immunofluorescence/PI, 24 h; series mostly up to 38.3 µM; activity change, negative = inhibition: at the top concentration; also: nearly all actives have a fitted effect of over 50% in size;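 as to activity change, negative = inhibition: plate controls were DMSO for no effect and rapamycin for full effect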
Method in brief: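 Immunofluorescence of rpS6 phosphorylation in Tsc2-/-, p53-/- MEFs after 24 h compound exposure, normalized to propidium iodide signal. Activity is expressed as % positive cells, thresholded with 7.5 nM rapamycin.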
Potency is read from the fitted curve at half-maximal effect; tags tell the direction and shape of the fitted curve.

| SMILES | Potency | activity change, negative = inhibition |
| --- | --- | --- |
| CC(C)(C)C1CCc2c(sc3nc(-c4cc5cc(Br)ccc5oc4=O)[nH]c(=O)c23)C1 (stereo not given) | inconclusive [falling, single point] |  |
| CCC(C)Sc1oc(-c2ccco2)nc1S(=O)(=O)c1ccc(C)cc1 (stereo not given) | inconclusive [falling, partial curve] |  |
| CN(Cc1ccc(F)cc1)S(=O)(=O)c1nnc(NC(=O)c2ccccc2Cl)s1 |  | inactive: -5.09% |
| CN(C)c1ccc(C2C=C(c3ccccc3)Nc3nnnn32)cc1 (stereo not given) | inconclusive [falling, partial curve] |  |
| Cc1oc2ccc(O)c(CN3CCCCC3)c2c1C(=O)Nc1cccc(C(F)(F)F)c1 | inconclusive [falling, single point] |  |
| COc1ccc2c(Sc3ccccc3)c(C(=O)NCCCN3CCCCC3)[nH]c2c1 | inconclusive [falling, single point] |  |
| COc1ccc(/C=C/C(=O)Nc2nc3n(n2)C(c2ccccc2)C=C(c2ccc(Cl)cc2)N3)cc1 (stereo not given) | inconclusive [falling, single point] |  |
| COc1ccc(CCNC(=O)CCCn2c(=O)c3ccccc3n(CC(=O)Nc3cc(Cl)ccc3C)c2=O)cc1OC | inconclusive [falling, single point] |  |
| CCCCN1C(=O)C(O)(c2c[nH]c3ccccc23)c2cc(Br)ccc21 (stereo not given) | inconclusive [falling, single point] |  |
| CCCCN(CCCC)S(=O)(=O)c1ccc2oc(C(=O)NCc3ccc(C)cc3)c(C)c2c1 | inconclusive [falling, partial curve, poor fit] |  |
| Cc1ccc(NC(=O)Cn2c(=O)n(Cc3ccco3)c(=O)c3sc4ccccc4c32)cc1C | inconclusive [falling, partial curve, poor fit] |  |
| COc1ccc(NC(=O)c2sc3nc(-c4ccc(OC)cc4)cc(C(F)(F)F)c3c2N)cc1 | inconclusive [falling, partial curve, poor fit] |  |
| CC1CCCCN1S(=O)(=O)c1ccc(C(=O)Nc2sc3c(c2C(N)=O)CC(C)(C)NC3(C)C)cc1 (stereo not given) | inconclusive [falling, partial curve, poor fit] |  |
| Cc1n[nH]c(C)c1S(=O)(=O)N(CC(=O)Nc1ccc(C(F)(F)F)cc1)c1ccc(C(C)C)cc1 | inconclusive [falling, partial curve] |  |
| CN(C)CCNC(=O)Cn1c(=O)c2cccn2c2ccc(F)cc21 | inconclusive [falling, partial curve, poor fit] |  |
| CCCSc1ncc(Cl)c(C(=O)Nc2ccc(S(=O)(=O)N(C)c3ccccc3)cc2)n1 |  | inactive: -5.35% |
| CC1CCCN(C(=O)CSc2c3c(nc4cc(Cl)ccc24)CCCC3)C1 (stereo not given) | inconclusive [falling, single point] |  |
| COc1ccc(OC)c(NS(=O)(=O)c2ccc3c(c2)C(C)(C)C(=O)N3C)c1 | inconclusive [falling, single point] |  |
| CC(=O)c1ccc(NC(=O)c2nc3ccccc3nc2N2CCCCC2)cc1 |  | inactive: -12.5% |
| Cc1cc(C)c(NC(=O)c2sc3nc(C)cc(C)c3c2NC(=O)c2ccccc2)c(C)c1 | inconclusive [falling, partial curve, poor fit] |  |

| SMILES | Potency | activity change, negative = inhibition |
| --- | --- | --- |
| CCc1ccc(S(=O)(=O)Nc2cc3c(C(=O)OCc4ccccc4)c(C)oc3c3ccccc23)cc1 | inconclusive [falling, single point] |  |
| CCC(=O)N1c2ccccc2CC1C(=O)NCCc1ccc(OC)c(OC)c1 (stereo not given) |  | inactive: 0.0345% |
| CC(=O)c1ccc(N2CCN(C(=O)C3CCCN(S(=O)(=O)c4ccc(Br)s4)C3)CC2)cc1 (stereo not given) | inconclusive [falling, partial curve, poor fit] |  |
| COc1ccc(-c2ccc3c(N)c(C(=O)Nc4ccc(C(F)(F)F)cc4)sc3n2)cc1OC | inconclusive [falling, single point] |  |
| CC(C)c1ccc(C2=CC(c3cccc(Cl)c3)n3c(nc4ccccc43)N2)cc1 (stereo not given) |  | inactive: -4.47% |
| COc1ccc(OC)c(CNC(=O)c2ccc3nc(C(C)C)oc3c2)c1 |  | inactive: 0% |
| Cc1cccc(OC(C)C(=O)Nc2nonc2-c2ccc(Br)cc2)c1C (stereo not given) | inconclusive [falling, single point] |  |
| CCc1cccc(NC(=O)Cn2c(=O)n(CCC(=O)NCc3ccccc3Cl)c(=O)c3sccc32)c1 | inconclusive [falling, single point] |  |
| COCCCNC(=O)c1ccc(Cn2c(=O)c3ccccc3n(Cc3ccccc3C)c2=O)cc1 |  | inactive: -16.2% |
| O=C(C1CCCN(S(=O)(=O)c2cccc3nonc23)C1)N1CCN(c2ccccc2Cl)CC1 (stereo not given) | inconclusive [falling, partial curve, poor fit] |  |
| Fc1ccc(-c2cn3cc(Cc4ccccc4Cl)sc3n2)cc1 |  | inactive: -2.55% |
| Cc1cc2ccccc2n1CCNC(=O)c1ccc(F)cc1 |  | inactive: 1.95% |
| CN(C)CCN(Cc1ccccc1)S(=O)(=O)c1ccc(-c2cc(C(F)(F)F)on2)s1 | inconclusive [falling, single point] |  |
| N#Cc1ccccc1Cn1c(=O)n(CCCC(=O)NCc2ccccc2Cl)c(=O)c2ccccc21 | inconclusive [falling, full curve, poor fit] |  |
| COc1cccc(NC(=O)CSc2nc3c([nH]c4ccccc43)c(=O)n2-c2cc(C)cc(C)c2)c1 |  | inactive: -5.79% |
| CCCCN(CCCC)CCCNC(=O)Cn1cc2c(n1)-c1c(oc(C(=O)N3CCCC3)c1C)CC2 | inconclusive [falling, partial curve, poor fit] |  |
| Cc1ccc(-n2ncc3c(NC(C)c4ccccc4)ncnc32)cc1 (stereo not given) |  | inactive: 2.28% |
| O=C(CSc1nnc(-c2ccc(Cl)cc2)o1)c1ccc([N+](=O)[O-])cc1 |  | inactive: -8.48% |
| CCCc1nnc(NC(=O)c2nc(SCC)ncc2Cl)s1 |  | inactive: -5.32% |
| CCc1cccc(C)c1NC(=O)Cn1nc(C)n2cccc2c1=O | inconclusive [falling, single point] |  |
